The subject of the data set is ATP. Briefly: switch fluorescence ratio, 500 uM ATP over buffer (Cy3 cluster intensity, sum of 5 cycles each) (fold (ratio)); higher = stronger signal-on switching upon ATP binding; sequences stand for … in TCGTCGGCAGCGTCAGATGTGTATAAGAGACAGTTTTTTTTTTTTTTTTTTTTTTTTT…TC. Conditions: aptamer strand: ATP DNA aptamer (quencher-CACCTGGGGGAGTATTGCGGAGGAAGG + anchor), 100 nM annealed; ATP concentration: 500 uM; one replicate. The procedure, abridged: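 Between each of five buffer/ATP cycles, the flow-cell was stripped with NaOH and re-annealed. Each cycle imaged Cy3-labelled switching-strand clusters, annealed to 100 nM quencher-labelled ATP aptamer on a modified Illumina MiSeq flow-cell, first in selection buffer and then after 15 min with 500 uM ATP at 22 °C. The fluorescence ratio is summed target-cycle over summed buffer-cycle Cy3 intensity per cluster, averaged per switch-domain sequence, with clusters outside 100-1000 RFU excluded.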

Values marked as one replicate rest on one cluster of the flow cell; about a third of the high ones do not repeat.
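Also: ATP exposure 15 min at 22 °C before imaging.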

As to TCACCGGATC, the switch fluorescence ratio is 1.09.
Next, GCGAGTTTGG: 1.02; ACCAGTTCC: 1.13; CTGATAGGCC: 1.01.
As to AGTAGTCGGA, the switch fluorescence ratio was 1.03.
Next, AGTCAAGTC: 1.04; AGTTCTCCTT: 1.02.
The result for CATTCCAGTC reads 1.11; that for TAATCGATA, 1.01.
Next, CCCTGTAAGG: 1.02; CTCGAGCCGA: 1.05; TTTTCAGTAA: 1.18.
In the case of ATGTTGGCAC, the switch fluorescence ratio was determined as 0.989.
For the sequence AGACTATAGA, the switch fluorescence ratio was 1.04.
Next, CTGGCCGAGT: 1.02; CTCGTAGCTT: 1.33.
For the sequence GTCGACCTCG, the switch fluorescence ratio is 1.
For TTTTCGTTTA, the switch fluorescence ratio was 1.05.
Take GCCATTGGAT: the switch fluorescence ratio is 0.977.
Next, TCGATCTCTG: 0.957; TATTGGTGTA: 0.976; TTTAATCTTA: 1.02.
The result for ATACGTGAGG reads 1.02.
Next, CGAGATATTT: 0.992.
In the case of ATGGCCACAT, the switch fluorescence ratio worked out at 0.998.
Turning to AGAGTCATTG, the switch fluorescence ratio turned out to be 0.989.
The result for ACAGTAATGT reads 1.02; that for ACTAGCCTGA, 1; that for TACATGTGAA, 1.03.
As for TTTCATCGTT, the switch fluorescence ratio was 1.
As to GCGTCAATGT, the switch fluorescence ratio came to 1.13.
Next, TTCGTGAGCC: 0.978; TCCCGTCCCT: 0.996.
Take ATCAGCCACA: the switch fluorescence ratio came out at 0.979.
The result for CAGCGGGCG reads 1.01; that for GTAGGAATGA, 1.1; that for ACTTGAAAGT, 1.02.
Take GTTTCTCTAA: the switch fluorescence ratio came to 1.03.
Next, CGCATATGCT: 2.13; TGGCAATAGA: 1.04.
Next, GAGACGGTGC: 1.04; TAAAAAGTCT: 1.03; GGTGCCCCGA: 1.03.
Next, ACACGTCTTT: 1.07.
Regarding CACCTGCCTT, the switch fluorescence ratio came to 1.1.
Regarding TTCTGCGT, the switch fluorescence ratio amounted to 1.
Consider TCAATTTTTG, for which the switch fluorescence ratio came to 0.982.
As for CATTGTCAGT, the switch fluorescence ratio was determined as 0.992.
Turning to TCTTGGGAGT, the switch fluorescence ratio is 0.957.
Regarding TTAAAAAGT, the switch fluorescence ratio amounted to 1.01.
In the case of TGACTCAAGA, the switch fluorescence ratio is 1.19.
On to GCCCGTGCGC, for which the switch fluorescence ratio was 1.02.
Turning to CAGGGTTACG, the switch fluorescence ratio amounted to 0.961.
Next, GACCGATCAA: 1.08; ATCCCCCCGC: 1.72; GTGACGGTCC: 0.994.
Consider CAACGCCTAA, for which the switch fluorescence ratio was determined as 1.16.
Consider ATGTTGCTAC, for which the switch fluorescence ratio was 1.07.
Next, CGTGTGCGCA: 1.
Next, AGGGAGCCAG: 0.985; GCGGGATTAA: 0.99.
As for CATCCGTGTT, the switch fluorescence ratio worked out at 2.3.
On to ATTACATAGT, for which the switch fluorescence ratio amounted to 1.03.
On to GAAAATGACT, for which the switch fluorescence ratio stood at 1.07.
The result for TTCGTCCCAC reads 1.03; that for TCCACGTTTT, 0.96; that for TGAACCCAAA, 0.995.
Take GATTTGTTCG: the switch fluorescence ratio turned out to be 0.963.
The result for TTCAATCCCC reads 1.14.
Next, TAGAGGCGG: 0.981; AGTTCACGT: 0.997; GTTTCAGACC: 1.01.
The result for GAAAATTTCG reads 1.06; that for CTGCCGGAGG, 1.08.
For AGTGGCATAA, the switch fluorescence ratio was found to be 1.06.
Turning to AGTAGGTAAG, the switch fluorescence ratio came out at 0.984.
The result for ATTTTCTTG reads 0.973; that for TGTCTGACTG, 0.92.
In the case of ACACTGAAGA, the switch fluorescence ratio stood at 0.982.

(Values after the supplement of paper PMC10126150.)
